The list shows a part of the results.
tested on: S. aureus RN4220; assay: growth inhibition call (relative growth <= 0.2); details: 50 µM

Growth inhibition call, inactive:
C[C@@H]1CN([C@H](C)CO)C(=O)c2cccc(NS(=O)(=O)c3cn(C)cn3)c2O[C@@H]1CN(C)S(C)(=O)=O, CC(=O)N1[C@@H]2Cn3c(ccc(-c4ccccc4)c3=O)[C@H]1[C@@H](C(=O)NCCCN1CCOCC1)[C@@H]2CO, CC(C)(O)c1ccccc1CC[C@@H](SCC1(CC(=O)O)CC1)c1cccc(/C=C/c2ccc3ccc(Cl)cc3n2)c1, COc1ccc(NC(=O)Nc2ccc3c(c2)C(=O)N([C@H](C)CO)C[C@H](C)[C@H](CN(C)C(=O)C2CCCCC2)OCCCC[C@H](C)O3)cc1, C[C@H]1CCCCO[C@@H](CN(C)C(=O)Nc2ccccc2)[C@@H](C)CN([C@@H](C)CO)C(=O)c2cc(NC(=O)NC3CCCCC3)ccc2O1, COC(=O)[C@@H](Cc1ccc(-n2cc(-c3ccc(C(=O)NO)s3)nn2)cc1)N1CC2=C[C@H](C3CC3)n3c(=O)n(C)c(=O)n3[C@@H]2[C@H]1[C@H](O)Cc1ccccc1, C[C@@H]1CN([C@@H](C)CO)C(=O)c2cc(NC(=O)Nc3ccc(F)cc3)ccc2O[C@@H](C)CCCCO[C@H]1CN(C)C(=O)C1CCCCC1, C[C@H](CO)N1C[C@H](C)[C@@H](CN(C)Cc2ccccc2)OCCCC[C@H](C)Oc2ccc(NS(=O)(=O)c3ccc(F)cc3)cc2C1=O, C[C@H]1CN([C@@H](C)CO)C(=O)c2cc(NC(=O)CCN3CCOCC3)ccc2O[C@H]1CN(C)Cc1ccc2c(c1)OCO2, CSCCC(N)C(=O)O (stereo not drawn), C=CCOC(=O)[C@H]1[C@@H]2C(=O)O[C@@H](c3ccccc3)[C@@H](c3ccccc3)N2[C@@H](c2ccc(OCCOC(=O)[C@H]3C[C@H]4C(=O)N[C@@H](CC(C)C)C(=O)N4[C@H]3c3cccc(OCCO)c3)cc2)[C@]12C(=O)Nc1ccc(I)cc12, N[C@H](C(=O)O)c1ccc(C(=O)O)c(C(=O)O)c1, O=C(C[C@@H]1CC[C@H]2[C@@H](COC[C@@H](O)CN2S(=O)(=O)c2ccccc2)O1)NCCN1CCCC1, C[C@@H]1CN([C@@H](C)CO)C(=O)CCCn2cc(nn2)CO[C@H]1CN(C)C(=O)Nc1ccnc(N2CCOCC2)c1, C[C@H]1CN([C@@H](C)CO)C(=O)c2cc(-c3cccc(C(=O)N(C)C)c3)cnc2O[C@@H]1CN(C)S(=O)(=O)c1ccccc1, Nc1ccccc1C(=O)C[C@H](N)C(=O)O, COc1ccc(COC[C@]23N=C4SCC(=O)N4[C@H](c4ccccc4O2)[C@H]3COC(=O)NCCCCCC(=O)NO)cc1, Cc1ccc(N(CC(=O)O)S(C)(=O)=O)cc1, C[C@@H]1CN([C@H](C)CO)C(=O)c2ccccc2-c2ccccc2CO[C@@H]1CN(C)C(=O)Nc1cccc(C(F)(F)F)c1, COc1ccc(S(=O)(=O)N2C[C@@H](O)COC[C@@H]3O[C@@H](CC(=O)NCCCN4CCOCC4)CC[C@H]32)cc1, C[C@@H]1CN([C@H](C)CO)C(=O)c2cccc(NC(=O)Nc3ccccc3)c2O[C@@H]1CN(C)C(=O)Nc1cccc2ccccc12, CCCNC(=O)Nc1ccc2c(c1)C(=O)N(C)C[C@@H](OC)[C@H](C)CN(Cc1ccc(-c3ccccn3)cc1)[C@@H](C)CO2, CN(C)CCCNC(=O)C[C@@H]1CC[C@H]2[C@@H](COc3ccc(NC(=O)c4ccc5c(c4)OCO5)cc3C(=O)N2C)O1, C[C@H](CO)N1C[C@H](C)[C@@H](CN(C)C(=O)Nc2ccc3c(c2)OCO3)Oc2c(NC(=O)c3ccc(-c4nccs4)cc3)cccc2C1=O, COc1ccc(NC(=O)Nc2ccc3c(c2)C(=O)N([C@@H](C)CO)C[C@@H](C)[C@@H](CN(C)Cc2ccc(Oc4ccccc4)cc2)O3)cc1, COc1ccc(NC(=O)N(C)C[C@@H]2OCCCC[C@H](C)Oc3ccc(NC(=O)CCC(F)(F)F)cc3C(=O)N([C@@H](C)CO)C[C@@H]2C)cc1

Growth inhibition call, active:
CNC1CCC(c2ccc(Cl)c(Cl)c2)c2ccccc21.Cl (stereo not drawn), CC1CCc2cc(F)cc3c(=O)c(C(=O)O)cn1c23 (stereo not drawn)

Source: the antibiotic and cytotoxicity screens of Wong et al. (2023)
